# Test results published in PubChem BioAssay AID493208 (National Center for Advancing Translational Sciences (NCATS), 2011).
# Screen size: about 44,000 compounds; about 340 (0.77%) were called active. About 5% were inconclusive and are not listed. Calls follow the shape of the dose curve; as a rule, active = well fitted inhibition curve with a large enough effect; inconclusive = small, poorly fitted or top-dose-only effect; inactive = flat fitted curve, though single readings scatter. The list shows a part of the results.
# Experiment: Acumen qHTS Assay for Inhibitors of the mTORC1 Signaling Pathway in MEF (Tsc2-/-, p53-/-) Cells: Sytravon;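 also: plate controls were DMSO for no effect and rapamycin for full effect; nearly all actives have a fitted effect of over 50% in size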
# Conditions: phospho-rpS6 immunofluorescence/PI, 24 h; series mostly up to 38.3 µM; activity change, negative = inhibition: at the top concentration
# Summary of the method: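 Compounds act on Tsc2-/-, p53-/- fibroblasts carrying an empty vector for 24 h before fixation and dual staining for phospho-S6 and DNA (propidium iodide). Values are percentages of cells above a rapamycin-defined pS6/PI threshold.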
row,SMILES,"activity change, negative = inhibition"
1,CCCCC(=O)Nc1nnc(S(=O)(=O)N(CC)c2cc(C)cc(C)c2)s1,inactive: 5.02%
2,CCOc1ccc(/C=C(\C#N)C(=O)Nc2sc3c(c2C(=O)OC)C(C(=O)OC)CC3)cc1OC (stereo not given),inactive: -7.11%
3,CN(C(=O)CSc1nc2ccccc2n1CC(=O)N(C)c1ccc(F)cc1)c1ccccc1,inactive: 0%
4,COc1cc(NC(=O)c2cc(-c3ccc(Cl)c(Cl)c3)on2)cc(OC)c1OC,inactive: -17.1%
5,O=C(CSc1nccn1Cc1ccc(F)cc1)Nc1ccc2c(c1)OCO2,inactive: 2.24%
6,Cc1ccc(CNC(=O)CN2C(=O)C3(SCC(=O)N3c3cc(C)cc(C)c3)c3ccccc32)cc1 (stereo not given),inactive: 2.99%
7,COc1ccc(N2CCN(C(=O)C3CCN(S(=O)(=O)Cc4ccccc4)CC3)CC2)cc1,inactive: 3.39%
8,COc1ccc(CNCCSc2nnnn2-c2ccccc2)c(OC)c1,inactive: -13.6%
9,CCN(c1ccccc1)S(=O)(=O)c1ccc(F)c(C(=O)Nc2ccc(C)cc2)c1,inactive: -24.2%
10,Cc1nc(-c2cccc(F)c2)sc1CCNC(=O)c1ccc(F)c(F)c1,inactive: -3.08%
11,CCOc1ccc(Nc2oc(-c3ccc(COc4ccccc4C)o3)nc2C#N)cc1,inactive: -16.4%
12,Cc1ccc(Nc2nnc(-c3ccc(C)c(S(=O)(=O)N4CCCCC4)c3)c3ccccc23)cc1,inactive: -1.69%
13,CCOc1ccc2c(c1)[C@@H]1C=CC[C@@H]1[C@H](c1ccccc1Cl)N2,inactive: -0.318%
14,Cc1ccc(CNC(C)c2ccccc2)s1 (stereo not given),inactive: -6.07%
15,CC(C)(C)OC(=O)N1CCC(c2c(C(=O)Nc3ccc4c(c3)OCCO4)cnn2-c2ccc(F)cc2)CC1,inactive: -9.17%
16,Cc1cccc(-c2nc3c(cnn3-c3ccccc3)c(=O)n2-c2cccc(Cl)c2)c1,inactive: -13.5%
17,O=C(NCCc1ccccc1)c1ccc2c(c1)N(Cc1ccccc1)C(=O)c1ccccc1S2=O (stereo not given),inactive: -12.1%
18,CN(C)c1ccc(CNC(=O)c2cc3ccccn3n2)cc1,inactive: -2.31%
19,Cc1cc(C)cc(NC(=O)CSc2nnc(COc3ccccc3Cl)o2)c1,inactive: -0.892%
20,Cc1ccc(C)c(NC(=O)CCCN2C(=O)COc3ccc(C)cc32)c1,inactive: -5.11%
21,CCN(CC)S(=O)(=O)c1ccc2c(c1)c(=O)c(C(=O)N(C)Cc1ccccc1)cn2C,inactive: -1%
22,Cn1cnc2c(=O)oc3ccc(S(=O)(=O)N4CCN(c5ccccc5)CC4)cc3c21,inactive: 0.212%
23,CC(C)(C)OC(=O)N1CCC(c2c(C(=O)Nc3cccc(C(F)(F)F)c3)cnn2-c2ccc(F)cc2F)CC1,inactive: 0.387%
24,CC(=O)Nc1cc(C(=O)NCc2ccc(F)cc2)ccc1Sc1ccc(C)cc1,inactive: 6.31%

row,SMILES,"activity change, negative = inhibition"
1,COc1ccc(C)cc1NC(=O)c1cc2c(s1)-c1ccccc1SC2,inactive: -1.13%
2,CCOC(=O)CC(NC(=O)Cn1nnc(-c2ccc(C(F)(F)F)cc2)n1)c1ccccc1Cl (stereo not given),inactive: -13.4%
3,Cc1nn(-c2ccccc2)c(-n2cccc2)c1C(=O)NCc1ccccc1Cl,inactive: -5.49%
4,CC1CCN(S(=O)(=O)c2ccc3ncn(CC(=O)Nc4ccccc4C(F)(F)F)c(=O)c3c2)CC1,inactive: 3.05%
5,Cc1cc(OCC(=O)Nc2cnn(CCCC(=O)O)c2)ccc1Cl,inactive: 0.864%
6,CCOC(=O)C1CCN(C(=O)CSc2n[nH]c(-c3ccccc3Cl)n2)CC1,inactive: -15.3%
7,CN(C)c1ccc(C(CNC(=O)Cc2ccc(Cl)cc2)N2CCOCC2)cc1 (stereo not given),inactive: 2.45%
8,CCOc1ccc(CNC(=O)CN2C(=O)CCn3nc(-c4cn(C)c5ccccc45)cc32)cc1OC,inactive: 6.34%
9,CCCn1c2ccccc2c2cnn(CC(=O)Nc3cccc(C(=O)OCC)c3)c(=O)c21,inactive: -12.2%
10,CCOc1ccc(NC(=O)CSc2cc(C)c3ccccc3n2)cc1,inactive: -2.14%
11,O=C(NCc1cccs1)c1nn(-c2ccccc2)nc1CO,inactive: -2.33%
12,Cc1ccc(NC(=O)Cn2c(=O)n(-c3ccc(C)cc3)c(=O)c3ccc(C(=O)NCc4ccccc4Cl)cc32)cc1,inactive: -9.29%
13,COc1ccc(CCNC(=O)Cc2c(C)c3c(cc(C)c4c(C)c(C)oc43)oc2=O)cc1OC,inactive: 3.29%
14,CC(=O)Nc1nonc1-c1nnc(SCc2ccc(F)cc2Cl)n1C,inactive: -8.49%
15,Cc1cc(C)cc(NC(=O)c2sc3nc(-c4ccccc4)cn3c2C)c1,inactive: -8.54%
16,COc1ccc(NC(=O)c2cc(-c3ccc4c(c3)OCO4)on2)c(OC)c1,inactive: -22.2%
17,CCOC(=O)c1cccc(NC(=O)CCS(=O)(=O)c2ccc(Br)s2)c1,inactive: -7.52%
18,Cc1ccc(NC(=O)CN2Cc3ccccc3C2=O)c(C)c1,inactive: -6.34%
19,Cn1c(=O)c2c(nc(SCC(=O)Nc3ccc(F)cc3F)n2Cc2ccccc2)n(C)c1=O,inactive: -15.4%
20,Cc1c(C)n(Cc2ccc(F)cc2)c2ccc(C(=O)N3CCN(c4ccc(Cl)cc4)CC3)cc12,inactive: 0.621%
21,CC1(C(=O)NC2CCCCC2)Cc2ccccc2C(=O)N1Cc1ccc(Cl)cc1 (stereo not given),inactive: -11%
22,COc1cccc(C2C(C(=O)Nc3ccc(Cl)cc3)=C(C)Nc3c(C(=O)Nc4ccccc4)cnn32)c1OC (stereo not given),inactive: -17.8%
23,CCOC(=O)C1CCN(c2cc3c(cc2NC(=O)c2ccc(OC)c(OC)c2)n(C)c(=O)n3C)CC1,inactive: -17.1%
24,CC1CCCCN1S(=O)(=O)c1ccc(F)c(C(=O)Nc2ccccc2C(F)(F)F)c1 (stereo not given),inactive: 6.95%

row,SMILES,"activity change, negative = inhibition"
1,CCC(C)NC(=O)Cn1c(=O)n(CCCC(=O)NCc2ccc(C)cc2)c(=O)c2ccccc21 (stereo not given),inactive: -2.63%
2,Cc1cn2c(=O)cc(COc3cc(C)c(Cl)c(C)c3)nc2s1,inactive: -0.409%
3,CCOc1ccc(NC(=O)CN(c2ccccc2OCC)S(=O)(=O)c2ccccc2)cc1,inactive: 19.9%
4,CCOc1cc2sc(N3CCC(C(=O)Nc4ccc(C(C)C)cc4)CC3)nc2cc1Br,inactive: -4.23%
5,Cc1cc(=O)n(Cc2cccc(Br)c2)c2c1c(C)nn2-c1ccccc1,inactive: -13.8%
6,Cc1cc(Cl)ccc1NS(=O)(=O)c1ccc2c(c1)CCN2S(C)(=O)=O,inactive: -1.19%
7,Cc1cccc(CNC(=O)Cc2csc3ccccc23)c1,inactive: -2.59%
8,COc1ccc(S(=O)(=O)N2CCN(Cc3nc4ccc(C)cc4o3)CC2)cc1OC,inactive: 0%
9,COc1ccc(NC(=O)CC2C(=O)N(c3ccc(OC)cc3)C(=O)N2C2CCCCC2)cc1 (stereo not given),inactive: -0.312%
10,Cc1c(Cl)cccc1-n1c(SCC(=O)NCc2ccccc2)nc2n[nH]c(C)c2c1=N,inactive: -3.16%
11,COc1cccc(C(=O)N2CC(=O)Nc3ccc(C)cc3C2c2ccc(F)cc2)c1OC (stereo not given),inactive: 0.314%
12,Cc1ccc(Nc2cc(=O)[nH]c(=O)[nH]2)cc1C,inactive: -1.5%
13,Cc1ccc(C(=O)N2c3ncnn3C3(CCCCC3)[C@@H]3CCCC[C@@H]32)cc1,inactive: -7.04%
14,Cc1ccc2oc(=O)c(-c3nc4ccc(C)cc4[nH]3)cc2c1,inactive: -8.95%
15,COc1ccc(OC)c(CNC(=O)CCc2c(C)nc3c(c2C)c(=O)n(C)c(=O)n3C)c1,inactive: -0.347%
16,CCCOc1ccc(CNC(=O)C(C)n2nc(C)n3c(cc4occc43)c2=O)cc1 (stereo not given),inactive: -4.18%
17,COc1ccc(Cl)cc1NC(=O)CSc1nnc(C)n2c1cc1sccc12,inactive: -5.9%
18,Cc1oc2ncnc(N3CCCCC3)c2c1C(=O)Nc1cccc(Cl)c1C,inactive: -0.703%
19,CCc1ccccc1NS(=O)(=O)c1ccc(-c2coc(C)n2)cc1,inactive: -19.6%
20,CCC1CCCCN1S(=O)(=O)c1ccc(NC(=O)c2nc(SC)ncc2Cl)cc1 (stereo not given),inactive: -4.31%
21,Cn1c2c(c(=O)n(C)c1=O)C(c1cc(Br)ccc1F)CC(=O)N2 (stereo not given),inactive: -21.4%
22,Cc1nc2cc(-c3ccccc3)nn2c(C)c1CCC(=O)NCCc1ccccc1,inactive: -3.04%
23,Cc1ccc2[nH]c(CSc3nnc(NC(=O)COc4ccccc4C)s3)cc(=O)c2c1,inactive: 0%
24,COc1ccc(Nc2cc(C(=O)NCCCN(C)c3ccccc3)c3ccccc3n2)c(OC)c1,inactive: 3.07%

row,SMILES,"activity change, negative = inhibition"
1,Cc1cccc(C)c1NC(=O)c1c(C)oc2c1C1=NCCN1C=N2,inactive: -10.2%
2,COc1ccc(CC(=O)Nc2ccc(-c3nc4ccccc4s3)cc2Cl)cc1OC,inactive: -12.3%
3,Cc1cccc(CCNC(=O)c2ccc3c(c2)nc2n3CCOC2)c1,inactive: -15.5%
4,COC(=O)c1ccc(NC(=O)c2cc(S(=O)(=O)N3CCC(C)CC3)cn2C)cc1,inactive: 8.9%
5,CCOC(=O)c1ccc(Nc2nc(N)c3cc(OC)c(OC)cc3n2)cc1,inactive: -19.9%
6,CCn1cc(C(=O)NCCCN2CCC(C)CC2)c(=O)c2cc(S(=O)(=O)N(C)C3CCCCC3)ccc21,inactive: -9.53%
7,COc1ccc(C(=O)c2oc3ccccc3c2NC(=O)COc2cccc(C)c2)cc1,inactive: -0.163%
8,CCN(CC)CCNC(=O)c1ccc2c(c1)NC(=O)C(CS(=O)(=O)Cc1ccc(F)cc1Cl)N2 (stereo not given),inactive: 5.83%
9,Cc1nn(C)c2c1c(-c1ccccc1)cc(=O)n2C(C)C(=O)NCCc1ccc(Cl)cc1 (stereo not given),inactive: 5.31%
10,COc1ccc(-c2ccc3c(N)c(C(=O)Nc4ccc(C)cc4C)sc3n2)cc1OC,inactive: -7.69%
11,COc1ccc(S(=O)(=O)NCC(c2ccco2)N2CCN(c3ccccc3F)CC2)cc1OC (stereo not given),inactive: -1.24%
12,CC(C)c1nc2ccc(C(=O)NCc3ccc(F)cc3)cc2o1,inactive: 3.4%
13,CC1CCN(C(=O)c2ccccc2NC(=O)c2nsc3ccccc23)CC1,inactive: 2.71%
14,CCc1cccc(NC(=O)C2CCCN2S(=O)(=O)c2ccc3c(c2)n(C)c(=O)c(=O)n3C)c1 (stereo not given),inactive: 11.7%
15,COc1ccc(-n2c(SCC(=O)Nc3cc(C)cc(C)c3)nc3c(oc4ccccc43)c2=O)cc1,inactive: -5.65%
16,COc1ccc(CNC(=O)CCc2c(C)nn(-c3ccc(N4CCCC4)nn3)c2C)c(OC)c1,inactive: 3.95%
17,CCOc1ccc(-c2cc(NC(=O)c3c(F)cccc3F)c(C(=O)OC)s2)cc1,inactive: -16.2%
18,Cc1ccc(Cl)cc1NC(=O)c1cnn2c(C(F)F)cc(-c3ccccc3)nc12,inactive: -28.8%
19,COc1ccc(NC(=O)c2cc(S(=O)(=O)N3CCCCC3)c[nH]2)cc1Cl,inactive: -3.9%
20,COC(=O)c1c(NC(=O)C(C)Oc2ccc(Cl)cc2Cl)sc2c1CCCC2 (stereo not given),inactive: 3.96%
21,Cc1cc(C)c(/C=C/c2onc(C)c2S(=O)(=O)N2CCC(C(=O)NCC(C)c3ccccc3)CC2)c(C)c1 (stereo not given),inactive: -13%
22,Cc1cc(NC(=O)CC(C)C)cc(-c2nc3ncccc3o2)c1O,inactive: 1.54%
23,O=C(CCS(=O)(=O)c1cc2c3c(c1)CCN3C(=O)CC2)NCc1ccc(Cl)cc1,inactive: -5.88%
